The campaign covered roughly 16,000 compounds. About 120 (0.75%) were called active. Not shown: some 4% with an inconclusive outcome. Calls follow the shape of the dose curve; as a rule, active = well fitted inhibition curve with a large enough effect; inconclusive = small, poorly fitted or top-dose-only effect; inactive = no such curve, though single readings can be large or run the other way. The list shows a part of the results. *1 amine or outer side, *2 acyl side, *3 side chain or, on linkers, in order; H or OH if unused. Where a SMILES comes first, the peptide text is derived from it. Bridges are numbered along the chain shown (N, C = ends). Roman numbers before positions name the chains, in order. [ ]: non-standard residue; d: D form. Actinocin(9to1) = Cc1c2oc3c(C)ccc(C(=O)[*:1])c3nc-2c(C(=O)[*:2])c(N)c1=O; NMeV = CN[C@H](C(=O)O)C(C)C; Sar = CNCC(=O)O
target: Rap guanine nucleotide exchange factor 3 (Homo sapiens) (UniProt O95398); assay: Validation qHTS for antagonist of cAMP-regulated guanine nucleotide exchange factor 3 (EPAC1); details: EPAC1 Rap1B-BODIPY-GDP exchange, fluorescence; series mostly up to 150 µM; activity change, negative = inhibition: at the top concentration;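 also: plate controls were DMSO for no effect and ATA control for full effect; nearly all actives have a fitted effect of over 75% in size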
Procedure, shortened: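 Nucleotide exchange followed as fluorescence loss when BODIPY-GDP leaves Rap1B (480 nm excitation, 540 nm emission), read at 5 min intervals over 30 min. Reaction: 100 nM EPAC1, 250 nM RAP1B-BODIPY-GDP, 50 uM GDP; ATA and DMSO define normalization.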

Sequence of UniProt O95398 (O95398 whole entry, looked up): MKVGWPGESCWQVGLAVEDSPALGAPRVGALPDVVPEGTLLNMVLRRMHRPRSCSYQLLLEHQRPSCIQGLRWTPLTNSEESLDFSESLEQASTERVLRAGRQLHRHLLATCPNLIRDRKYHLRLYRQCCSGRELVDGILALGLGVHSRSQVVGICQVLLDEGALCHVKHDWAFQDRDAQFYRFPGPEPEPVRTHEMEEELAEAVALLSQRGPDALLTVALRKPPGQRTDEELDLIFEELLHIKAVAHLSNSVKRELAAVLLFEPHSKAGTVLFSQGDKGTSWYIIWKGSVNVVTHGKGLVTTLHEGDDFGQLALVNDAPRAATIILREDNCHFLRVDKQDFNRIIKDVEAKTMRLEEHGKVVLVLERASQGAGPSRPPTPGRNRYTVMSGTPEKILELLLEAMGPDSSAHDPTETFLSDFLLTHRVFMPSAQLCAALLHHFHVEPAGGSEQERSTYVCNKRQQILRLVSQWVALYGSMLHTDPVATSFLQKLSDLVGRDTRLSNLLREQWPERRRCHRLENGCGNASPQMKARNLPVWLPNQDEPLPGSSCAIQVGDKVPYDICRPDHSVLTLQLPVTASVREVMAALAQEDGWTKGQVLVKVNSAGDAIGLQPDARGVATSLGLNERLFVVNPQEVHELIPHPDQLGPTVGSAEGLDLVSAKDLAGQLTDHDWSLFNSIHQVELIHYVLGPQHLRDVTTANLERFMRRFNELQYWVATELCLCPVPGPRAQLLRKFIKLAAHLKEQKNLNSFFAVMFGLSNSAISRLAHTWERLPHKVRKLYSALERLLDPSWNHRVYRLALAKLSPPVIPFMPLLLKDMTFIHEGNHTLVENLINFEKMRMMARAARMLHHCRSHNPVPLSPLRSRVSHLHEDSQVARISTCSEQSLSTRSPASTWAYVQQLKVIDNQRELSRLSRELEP

Activity change, negative = inhibition, inactive:
Nc1ncnc2c1ncn2[C@H]1CC[C@@H](CO)O1
O=C(C[n+]1cc(Br)cc2ccccc21)c1ccc(Cl)cc1 7.87%
CC[C@@H]1Cc2cc(O)ccc2C2=C1c1ccc(O)cc1C[C@H]2CC -6.11% [at 75.8 µM]
O=C(NCC1(N2CCCCC2)CCCC1)c1cnn(-c2nccc(-c3cccs3)n2)c1C1CC1 6.43%
C[C@@H]1NC(=O)[C@@H](N)CNC(=O)[C@H](C2CCNC(N)=N2)NC(=O)/C(=C/NC(N)=O)NC(=O)[C@H](CNC(=O)C[C@@H](N)CCCN)NC1=O (stereo partly drawn)
CCn1cc(CN2CCOc3ccc(C(O)C4CCCCC4)cc3C2)c(C)n1 (stereo not drawn) 13.8%
COC(=O)N1CCC2(CCN(C(=O)Nc3ccc(OC)cc3)CC2)CC1 19.7%
CC(C)CCCC(C)C1CCC2C3CC=C4CC(O)CCC4(C)C3CCC12C (stereo not drawn) 7.19%
Cc1c2oc3c(C)ccc(C(=O)N[C@@H]4C(=O)N[C@H](C(C)C)C(=O)N5CCC[C@H]5C(=O)N(C)CC(=O)N(C)[C@@H](C(C)C)C(=O)O[C@@H]4C)c3nc-2c(C(=O)N[C@@H]2C(=O)N[C@H](C(C)C)C(=O)N3CCC[C@H]3C(=O)N(C)CC(=O)N(C)[C@@H](C(C)C)C(=O)O[C@@H]2C)c(N)c1=O (I: T[dV]P[Sar][NMeV] / II: T[dV]P[Sar][NMeV]; ester I:1-I:C, II:1-II:C; linker I:N-II:N via Actinocin(9to1)) 0.796%
O=C1C[C@H]2C=CCc3cccc(c32)CN1Cc1ccc(F)cc1 -10.8%
COc1ccc(Oc2ncc3nc(-c4cccs4)c(=O)n(C)c3n2)cc1 7%
N#CCCn1c(=O)c(-c2cccc(C#N)c2)nc2cnc(N3CCOCC3)nc21 34.7%
O=C([C@@H]1CC=C[C@@H]2CCN(C3CC3)C(=O)[C@@H]21)N1CCOCC1 1.53%
CC1C(=O)OC2CC34C5CC(C(C)(C)C)C36C(OC(=O)C6O)OC4(C(=O)O5)C21O (stereo not drawn) 10.4%
CC(C)Cc1ccc([C@@H](C)C(=O)NS(C)(=O)=O)cc1 13.5%
COc1ccc2c(c1)c(CC(=O)OCC(=O)O)c(C)n2C(=O)c1ccc(Cl)cc1
O=C1CCN(CCc2ccccc2)CCN1CCOc1ccccc1 -16.4%
C=CC[n+]1cccc2cccc(O)c21 16.9%
CC(=NCc1ccccc1)c1ccccc1O 7.58%
O=C(C[n+]1ccccc1Cl)c1ccc(Br)cc1 -24.3%
NC(=O)c1cc[n+](CC2=C(C(=O)[O-])N3C(=O)[C@@H](NC(=O)Cc4cccs4)[C@H]3SC2)cc1 24.9% [at 75.8 µM]
COc1cc(=O)n2c(c1C(=O)NCc1ccco1)CCN(Cc1ccc3ccccc3c1)CC2 8.2%
Cc1nccn1CC1CCc2c(c3ccccc3n2C)C1=O (stereo not drawn)
CN1CCN(c2ncc3nc(-c4ccccc4)c(=O)n(Cc4ccc(F)cc4)c3n2)CC1 6.45%
O=C1C(O)=C(O)C(=O)C(O)=C1O -12.4%
O[C@H](CCCN1CCN(c2ncc(F)cn2)CC1)c1ccc(F)cc1 3.82%
CCCCN(CC)CCOc1cccc2ccccc12 18.4%
c1ccc(CCc2nnc3n2CCN(Cc2ccc4ccccc4n2)CC3)cc1 12.6%
CCN(CC)CCOc1ccc(-c2nc3cc(Cl)ccc3s2)cc1 2.85%
CC(C)NC(=O)[C@@H]1C[C@@H](Sc2ccccn2)CN1C1CCN(C)CC1 5.45%
CC1(C)[C@@H]2CC[C@@]1(C)[C@H](OC(=O)CSC#N)C2 2.14%
O=C(c1cc(C(F)(F)F)cc(C(F)(F)F)c1)N1CCC[C@@]2(CCN(Cc3ccccc3)C2)C1 -16.9%
CCCCCCCCCCCCN1C/C(=C\C(=O)OCC)c2cc(C(F)(F)F)ccc2S1(=O)=O -18.6%
CC(=O)NC[C@H]1CN(c2ccc(N3CCOCC3)c(F)c2)C(=O)O1 -3.13%
Cc1cnc(CNc2cc(-c3ccccc3Cl)ncn2)cn1 11.7%
CSc1ccccc1C(=O)NCC1Cc2cc(F)cc(-c3cnccn3)c2O1 (stereo not drawn) 10.3%
NC(N)=[N+]1CCc2ccccc2C1 -0.338% [at 75.8 µM]
Cc1noc(C)c1-c1cncnc1NCc1cccnc1 8.46%
O=C1CCC[C@@H]2C[C@@]3(C[C@@H]4CCN1[C@H]24)Nc1ccccc1NC3=NC1CCCCC1 16.4%
CC[C@H](C)C(=O)O[C@H]1C[C@H](O)C=C2C=C[C@H](C)[C@H](CC[C@@H](O)C[C@@H](O)CC(=O)O)[C@H]21 21.3%
Cc1cccn2c(=O)c(-c3nnn[nH]3)cnc12 16.9%
COc1cc2nc(N(C)C)c(CNCc3cccc4ccccc34)cc2c(OC)c1OC 28.5%
COc1ccc2[nH]cc(CCNc3ncnc4ccc(-c5ccccc5C#N)cc34)c2c1 6.37%
O=C1CC2(CCCC2)CC(=O)N1CCCCNCC1COc2ccccc2O1 (stereo not drawn) -4.02%
CC1=C(C(=O)O)N2C(=O)[C@@H](NC(=O)[C@H](N)c3ccccc3)[C@H]2SC1 -0.463%
Cn1cccc1C(=O)N1CCC2(CCCN(c3cccc(-c4ccccc4)c3)C2)CC1 0.86%
COc1cccc(C(=O)NCC2Cc3cccc(-c4nc(C)cnc4C)c3O2)c1OC (stereo not drawn) 13.7%
O=S(=O)(c1cccc2c(Cl)cccc12)N1CCCNCC1
CCOCCn1c(N2CCCN(C)CC2)nc2ccccc21 13.1%
COCC(=O)N1CCC2(CCCN(c3cccc(-c4ccccc4)c3)C2)CC1 -4.04%
COc1ccc(OC)c(-c2cc(Cl)c3c(c2)CC(CNC(=O)c2coc4c2C(=O)CCC4)O3)c1 (stereo not drawn) 10.4%
Cc1ccccc1CN1[C@H]2CCCC[C@@H]2OCCS1(=O)=O 6.74%
COCCn1c(=O)c(C)nc2cnc(Oc3ccc(OC)cc3)nc21 -3.46%
COCCN1CCN(C(=O)c2cnn(-c3nccc(-c4ccccc4OC)n3)c2-c2ccco2)CC1 22.3%
O=C(c1cnccn1)N1CCC2(CC1)CN(c1ccncc1)C2 15.2%
CCNC(=O)CCC(N)C(=O)O (stereo not drawn) -5.58%
Cn1c(=O)c(CCc2ccccc2)nc2cnc(OCc3ccccc3)nc21 12.3%
COc1cc(=O)n2c(c1C(=O)N(C)Cc1nonc1C)CCN(Cc1ccc(C)cc1C)CC2 21.9%
O=C(c1cc(C(F)(F)F)cc(C(F)(F)F)c1)N1CCC2(CCN(Cc3nccs3)CC2)CC1 1.07%
N[C@H](C(=O)O)c1cccc(O)c1
Nc1nc(Nc2ccccc2)nc2c1ncn2[C@@H]1O[C@H](CO)[C@@H](O)[C@H]1O 11.6% [at 75.8 µM]
OC1(c2cccnc2)CCN(Cc2ccc3c(c2)CN(Cc2cc(F)cc(F)c2)CCO3)CC1 17.2%
COc1cc(CCNC(C)=O)c(C(=O)/C=C/c2cccc(OC)c2OC)cc1OC -6.38%
Cc1cc(O)cc(O)c1C(=O)O 8.07%
CO[C@H]1[C@H](NC(=O)c2cccs2)c2ccccc2C12CCN(Cc1cccn1-c1ccccn1)CC2 2.04%
CC(C)(C)NCC(O)COc1cccc2c1CC(O)C(O)C2 (stereo not drawn) 13.8%
COC(=O)[C@@H]1CCCN1Cc1ccc2c(c1)CN(Cc1cccn1-c1ccccn1)CCO2 13.5%
c1cncc(CNc2ncnc3ccc(-c4cccnc4)cc23)c1 -13.1%
C=C[C@]1(C)C[C@@H](OC(=O)CO)[C@]2(C)[C@H](C)CC[C@]3(CCC(=O)[C@H]32)[C@@H](C)[C@@H]1O 4.89%
Cc1noc(C)c1C(=O)N1CCC[C@@]2(CCN(Cc3ccc(C#N)cc3)C2)C1 -3.25%
Cc1cccc(C)c1NC(=O)C[N+](C)(C)C 3.89%
O=C(OCCN1CCCCC1)c1c[nH]c2ccccc12
COc1ccccc1-c1ccc(C(=O)N(C)C(C)c2ccon2)c(N2CCN(c3ccccc3F)CC2)n1 (stereo not drawn) 8.5%
C=C1C(=O)OC2CC1C(OC(C)=O)CC(C)=CCCC(C)=CCC[C@@]2(C)O (stereo partly drawn) 5.65%
Cc1ccc(S(=O)(=O)/C=C/C#N)cc1
O=C(/C=C/c1ccc(O)cc1)c1c(O)cc(O)cc1O 11.4%
CCCn1c(=O)c2[nH]c(-c3ccc(OCC(=O)NCCN)cc3)nc2n(CCC)c1=O -3.35% [at 75.8 µM]
CCn1c(-c2ccccc2F)nc2cc(C(=O)N3CCNC(=O)C3CC(=O)OC)cc(NC(C)=O)c21 (stereo not drawn) 1.61%
C=C1C(=O)OC2C1CC/C(C)=C/CCC1(C)OC21 (stereo not drawn) -15.9%
O=C1c2ccccc2CCC1CNCCc1ccc(O)cc1 (stereo not drawn) 24.3%
COC(=O)C1OC(=O)C2OC23[C@]2(C)C(O)CC4C(C)(C)C(OC(C)=O)CC(OC(C)=O)[C@@]4(C)C2CC[C@@]13C (stereo partly drawn)
Cc1cnc(CNc2cc(-c3cccnc3)ncn2)cn1 -14%
COc1cccc(/C=C/C(=O)O)c1C(C)C 9.75%
COc1ccccc1CN1CCCC2(CCN(C(=O)c3csnn3)CC2)C1 8.84%
O=c1c(-c2ccc(F)cc2)nc2cnc(N3CCNCC3)nc2n1C1CC1 14.2%
O=c1c(-c2ccccc2)c1-c1ccccc1 -28.7%
O=c1oc2ccccc2cc1O 12.3%
CN(C)CCCN1c2ccccc2C(C)(C)c2ccccc21 13.5%
CN(C)c1ncnc2ccc(-c3cccc(NS(C)(=O)=O)c3)cc12 9.36%
COc1ccc(-c2nc3cnc(Nc4ccccc4)nc3n(C[C@H]3CCCO3)c2=O)cc1 38.8%
C=C1CCC(=O)C(C)CCC2C1CC2(C)C (stereo not drawn) -5.43%
N=C(N)c1ccc(OCCCCCOc2ccc(C(=N)N)cc2)cc1 (tested in a mixture with another compound) 6.72% [at 75.8 µM]
OCC(O)C(O)C(O)CO (stereo not drawn) 11.7%
Cc1cccc2cc(CN(C(=O)c3ccc(C(F)(F)F)cc3)C3CC3)c(N3CCC(O)CC3)nc12 -24.4%
COc1cccc(Nc2ncc3nc(C)c(=O)n(Cc4cccs4)c3n2)c1 35.4%
COc1cc(CNc2nc(C)c(-c3ccn(C4Cc5ccccc5C4)n3)s2)cc2c1OCO2 -6.59%
CSc1nnc(CNC(=O)c2cccc3ccccc23)n1-c1ccccc1C -3.89%
Cc1ccc(C(=O)N(Cc2cc3cc4c(cc3nc2N2CCOCC2)CCC4)CC2CCCO2)s1 (stereo not drawn) -15.6%
